# About 14,000 (4.5%) of roughly 310,000 compounds showed an effect of 50% or more. The effect is printed as a negative number. The list shows a part of the results.
# Molecular target: human ether-à-go-go-related gene (hERG) potassium channel (human, UniProt Q12809)
# Experiment: primary screen, population patch clamp on CHO cells stably expressing hERG
# 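Note: peak tail current of the secondary pulse compared with the same well before compound.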
# Chain of human ether-à-go-go-related gene (hERG) potassium channel (Q12809 whole entry, looked up): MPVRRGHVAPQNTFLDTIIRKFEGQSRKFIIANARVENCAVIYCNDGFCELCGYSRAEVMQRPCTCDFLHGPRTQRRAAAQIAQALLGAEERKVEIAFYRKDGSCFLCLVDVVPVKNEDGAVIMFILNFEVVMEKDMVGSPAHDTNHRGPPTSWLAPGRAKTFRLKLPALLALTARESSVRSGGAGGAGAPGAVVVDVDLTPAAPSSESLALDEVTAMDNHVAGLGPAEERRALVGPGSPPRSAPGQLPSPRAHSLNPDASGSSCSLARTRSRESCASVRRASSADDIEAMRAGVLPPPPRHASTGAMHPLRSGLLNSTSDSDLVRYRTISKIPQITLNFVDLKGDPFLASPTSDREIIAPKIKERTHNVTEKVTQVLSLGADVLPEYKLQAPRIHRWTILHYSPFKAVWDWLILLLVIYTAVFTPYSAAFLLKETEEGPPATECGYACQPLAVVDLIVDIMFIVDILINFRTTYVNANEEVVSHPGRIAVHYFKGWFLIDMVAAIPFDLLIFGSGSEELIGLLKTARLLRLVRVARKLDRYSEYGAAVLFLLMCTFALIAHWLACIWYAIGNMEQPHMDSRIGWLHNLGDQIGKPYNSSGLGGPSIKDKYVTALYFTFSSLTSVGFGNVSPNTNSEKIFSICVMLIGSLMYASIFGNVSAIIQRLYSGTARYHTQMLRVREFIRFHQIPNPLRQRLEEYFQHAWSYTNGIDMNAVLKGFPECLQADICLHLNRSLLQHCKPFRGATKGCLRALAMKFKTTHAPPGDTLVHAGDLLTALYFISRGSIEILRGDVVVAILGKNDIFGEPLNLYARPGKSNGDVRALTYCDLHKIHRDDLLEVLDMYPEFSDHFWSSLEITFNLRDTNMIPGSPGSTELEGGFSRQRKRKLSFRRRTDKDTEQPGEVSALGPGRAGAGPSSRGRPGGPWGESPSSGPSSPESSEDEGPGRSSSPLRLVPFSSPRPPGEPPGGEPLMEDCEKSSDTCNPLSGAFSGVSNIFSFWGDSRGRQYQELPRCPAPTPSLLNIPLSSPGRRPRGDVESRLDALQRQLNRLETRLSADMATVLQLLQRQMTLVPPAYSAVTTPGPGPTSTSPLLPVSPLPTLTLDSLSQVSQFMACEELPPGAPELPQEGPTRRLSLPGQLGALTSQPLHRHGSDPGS
row,SMILES,"hERG current change (%, negative = inhibition) at 10uM"
1,COc1ccccc1NC(=O)COC(=O)[C@@H]1CCCN1C(=O)c1cccs1,-40.6%
2,COc1ccc(N(C)C(=O)Nc2ccc3c(c2)nnn3C)cc1,4.71%
3,COc1cccc(/C=N/NC(=O)c2cc3c(OC)cccc3[nH]2)c1O,28.3%
4,COc1ccc(S(=O)(=O)Cc2ccc(C(=O)NCc3ccccn3)o2)cc1,-1.65%
5,Cc1cccc(CSc2ccc3nnc(-c4cccnc4)n3n2)c1,-66.5%
6,Cc1nc(SCC(=O)N(C)C2CCCCC2)[nH]c(=O)c1Cc1ccccc1,-38.3%
7,O=C1/C(=C/c2ccncc2)SC(=S)N1Nc1ccccc1,14.3%
8,C=CCN1C(=O)/C(=C\c2ccc(Cl)cc2)N=C1SCC(=O)NC1CCCCC1,9.07%
9,CCN1CCN(C(=S)Nc2sc(C)c(-c3ccccc3)c2C(=O)OC)CC1,15.3%
10,CCn1c(CNC(=O)c2ccccc2)nnc1SCC(=O)N1CCN(c2ccccc2)CC1,-11.6%
11,O=C(Nc1ccc(C(=O)N2CCOCC2)cc1)c1cccc([N+](=O)[O-])c1,18.2%
12,COc1ccccc1C(=O)Oc1ccc2c(c1)O/C(=C\c1ccncc1)C2=O,16.4%
13,O=C(NC(=S)Nc1ccccc1N1CCCCC1)c1ccc(-c2cccc([N+](=O)[O-])c2)o1,4.88%
14,CN(C)CCCN(Cc1ccccc1)C(=S)Nc1ccc(F)c(Cl)c1,-24.3%
15,CSc1nc(C)c(C(=O)C[n+]2ccccc2)cc1C#N.[Br-],-22.6%
16,Cc1ccccc1Oc1ccc(-c2nc(N)nc(N)n2)cc1,3.44%
17,COc1ccc(CN2C(=S)NC(C)(C)CC2(C)O)cc1 (centres unmarked),5.27%
18,O=C(CS(=O)(=O)c1cccc(C(F)(F)F)c1)Nc1ccccc1Cl,8.59%
19,CCN1CCN(C(=O)/C=C/c2ccc(F)cc2)CC1,-43.2%
20,O=C(COC(=O)c1ccc(Cl)cc1O)NCCN1C(=O)CSC1=O,-0.903%
21,O=C(CCCn1c(=O)[nH]c2cc(Cl)ccc2c1=O)NCCCN1CCCC1,14.6%
22,CN(CC(=O)Nc1ccc(Cl)c(C(F)(F)F)c1)C(=O)c1ccc2c(c1)OCCO2,-8.55%

row,SMILES,"hERG current change (%, negative = inhibition) at 10uM"
1,Cc1cc(=O)n2nc(N3CCCC(C(=O)NCCCN4CC(C)CC(C)C4)C3)sc2n1 (centres unmarked),16.3%
2,COCCn1c(N2CCCC2)nc2c1c(=O)[nH]c(=O)n2C,15.7%
3,Cc1ccc(N(CC2CO2)S(=O)(=O)c2ccc(C)cc2)cc1 (centres unmarked),-5.18%
4,Cc1cc([N+](=O)[O-])nn1CC(=O)Nc1nccs1,-4.57%
5,CN(C)c1nc(-c2cn(CCC#N)c3ccccc23)cs1,25.6%
6,CCC(C)(C)c1nnc(NC(=O)c2ccc([N+](=O)[O-])cc2)s1,7.45%
7,Cc1nn(-c2ccccc2)c(-c2ccccc2[N+](=O)[O-])c1C(=O)O,15.1%
8,O=C(Nc1ccnn1C1CCN(Cc2ccccc2OCCO)CC1)c1cccc(F)c1,-34.8%
9,CCNC(=O)N1CCN(S(=O)(=O)c2ccc3c(c2)OCCCO3)CC1,10.6%
10,Cc1cc(C)c2nc(Cl)c(Cl)nc2c1,12.5%
11,O=C(NC(=S)Nc1ccc(CN2CCOCC2)cc1)c1ccc(-c2ccc(Cl)cc2)o1,1.86%
12,CN(CCc1ccccn1)C(=O)CCC1CCCN(C(=O)c2n[nH]c3c2CCCC3)C1 (centres unmarked),22.9%
13,COc1ccccc1C(=O)NCCC(=O)N(C)CC(=O)Nc1ccccc1Br,-13%
14,O=C(Nc1ccc(S(=O)(=O)Nc2ccccc2)cc1)C1COc2ccccc2O1 (centres unmarked),-4.98%
15,COc1ccccc1N(CC(=O)NC(C)(C)C)S(=O)(=O)c1cccs1,-19.3%
16,O=C1c2cccnc2C(Nc2ccc(F)c(Cl)c2)N1Cc1cccs1 (centres unmarked),7.7%
17,O=C(CCC(=O)c1cccs1)NC1CCCCCC1,-4.2%
18,CC(NC(=O)c1ccc(S(=O)(=O)Nc2ccccc2)cc1)c1ccc(S(N)(=O)=O)cc1 (centres unmarked),1.11%
19,COC(=O)C1=C(c2cc3ccccc3o2)C[C@@H]2CC[C@H]1N2C(=O)N1CCCCC1,-21.4%
20,Cc1ccc(OCc2nnc(SCC(=O)Nc3cc(C)on3)n2C)cc1,20.7%
21,CCOc1ccc2oc(C(=O)OCC(=O)NC3CCCC3)c(C)c2c1,11.1%
22,O=S(=O)(c1cccc(-c2nnco2)c1)N1CCOCC1,8.96%

row,SMILES,"hERG current change (%, negative = inhibition) at 10uM"
1,CCO[C@H]1OC(C(=O)O)=C[C@@H](c2ccccc2)[C@@H]1CCCO,-4.36%
2,CCOc1ccc(CCNC(=O)CSc2ncn[nH]2)cc1OCC,-8.55%
3,CCC(C)NS(=O)(=O)c1ccc(NC(=O)c2ccc([N+](=O)[O-])cc2Cl)cc1 (centres unmarked),-88.7%
4,CC(C)C(C)(C#N)NC(=O)CSc1nc(C2CCCCC2)n(-c2ccccc2)n1 (centres unmarked),-17.8%
5,COCCN(C(=O)Cc1coc2cc(C)c(C)cc12)c1c(N)n(Cc2ccccc2)c(=O)[nH]c1=O,-2.52%
6,O=S(=O)([O-])CCC[N+]1(CC#Cc2ccccc2)CCCCC1,33.8%
7,CCCc1nnc(NC(=O)c2ccc(S(=O)(=O)N(C)c3ccccc3OC)cc2)s1,4.41%
8,N/C(=N\N=C\c1ccnc2ccccc12)SC1CC(=O)N(c2ccc(Br)cc2)C1=O (centres unmarked),0.637%
9,COc1ccc(-c2nnc(SCC(=O)NCc3cccs3)n2C)cc1,-1.49%
10,c1ccc(-c2nnc(-c3ccncc3)nc2-c2ccccc2)cc1,-24.5%
11,CNS(=O)(=O)c1ccc(C)c(S(=O)(=O)NC)c1,18.9%
12,CC1CC(=O)N(c2ccc(NCCc3ccc(O)cc3)c([N+](=O)[O-])c2)C1=O (centres unmarked),-3.21%
13,Cc1cc(=O)oc2c(C)c(OCC(=O)N3CCN(Cc4ccccc4)CC3)ccc12,-44%
14,COc1ccc(NC(=O)Cn2nnc(C(=O)NCc3cccc(OC)c3)c2N)cc1,10.6%
15,COC(=O)c1cccc(NC(=O)c2cc3sccc3n2C)c1,-5.25%
16,COc1ccc(-c2csc(NC(=O)c3ccccc3NS(=O)(=O)c3ccc(F)c(F)c3)n2)cc1,19.3%
17,COc1ccc(C)cc1NC(=O)CSc1nnc2ccc(-c3cccnc3)nn12,-35.1%
18,CCc1nc(C)ccc1OC(=O)C12CC3CC(CC(C3)C1)C2.Cl,-4.09%
19,O=C(COC(=O)c1ncc(Cl)c(Cl)c1Cl)Nc1ccccc1OC(F)F,6.21%
20,COc1ccc(/C=C/C(=O)OCC(=O)NC(=O)NC(C)(C)C)cc1,11.9%
21,Cc1ccc(-c2ccc(=O)n(CCC(=O)NCCN3CCCCC3C)n2)cc1 (centres unmarked),-58.7%
22,COc1ccc(-c2nc(S(=O)(=O)c3ccccc3)c(N3CCOCC3)o2)cc1,24%

row,SMILES,"hERG current change (%, negative = inhibition) at 10uM"
1,O=C(c1ccc(OC2CCN(Cc3cccc(F)c3)CC2)cc1)N1CCCCC1,-23.4%
2,Cc1ccc(/C(N)=N/OC(=O)c2cccc(Cn3cc(C(F)(F)F)ccc3=O)c2)cc1,-7.03%
3,CCOC(=O)CNC(=O)/C(=C\c1ccc(F)cc1)NC(=O)c1ccccc1,-26.4%
4,COc1ccc(C)cc1S(=O)(=O)N(CC(=O)O)c1ccc(F)cc1,6.59%
5,N#Cc1ccc(COC(=O)c2cnc3ccccc3n2)cc1,-8.51%
6,CC(CCC(=O)O)C1CC[C@H]2C3CCC4CC(=O)CCC4(C)[C@H]3CC(=O)C12C (some centres unmarked),-8.19%
7,CC(=O)C[C@H](O)CC(=O)[C@@H]1OC(=O)CCCCCCc2ccccc21,0.558%
8,O=C(c1ccc(Br)cc1)N(Cc1ccco1)C1CCS(=O)(=O)C1 (centres unmarked),-10.3%
9,CCCCN(CC)Cc1ccc(CNC(=S)Nc2c(C)cc(C)cc2C)o1,-54.8%
10,Cc1ccc(C)c(SCC(=O)OCC(=O)N2CC(C)OC(C)C2)c1 (centres unmarked),-2.98%
11,O=C(CN1CCN(C(=O)c2c(F)cccc2F)CC1)Nc1ccccc1F,-11.3%
12,O=C(Nc1ccc2c(c1)OCCO2)c1cnccn1,10.7%
13,COc1ccccc1NS(=O)(=O)c1cccc(C(=O)NCC(C)(C)N2CCOCC2)c1,-4.29%
14,O=C(CSc1nncs1)NCCNC(=O)CSc1nncs1,23.1%
15,COc1cccc(N2CCN(c3nc(C)cc(=O)[nH]3)CC2)c1,13.2%
16,CC(C)C1COC(c2cccc3ccccc23)=N1 (centres unmarked),4.64%
17,CCOC(=O)c1c(NC(=O)C2C3C=CC(C3)C2C(=O)O)sc2c1CCC(C)C2 (centres unmarked),-6.93%
18,Cc1cccc(NC(=O)c2ccc3nsnc3c2)c1C,37%
19,NC(=O)c1ccsc1NC(=O)COC(=O)COc1ccccc1[N+](=O)[O-],4.94%
20,COc1cc(-c2cc(C(=O)Nc3ccncc3)c3ccccc3n2)cc(OC)c1OC,-32.1%

# Source: publication PMC4336329 (PLoS ONE, 2015)
